Experimental findings from PMC4336329 (PLoS ONE, 2015) are described below.

About 2,200 (0.71%) of roughly 310,000 compounds showed an effect of 50% or more. Effects have a minus sign here. The list shows a part of the results.

human ether-à-go-go-related gene (hERG) potassium channel, sequence (Q12809 whole entry, looked up): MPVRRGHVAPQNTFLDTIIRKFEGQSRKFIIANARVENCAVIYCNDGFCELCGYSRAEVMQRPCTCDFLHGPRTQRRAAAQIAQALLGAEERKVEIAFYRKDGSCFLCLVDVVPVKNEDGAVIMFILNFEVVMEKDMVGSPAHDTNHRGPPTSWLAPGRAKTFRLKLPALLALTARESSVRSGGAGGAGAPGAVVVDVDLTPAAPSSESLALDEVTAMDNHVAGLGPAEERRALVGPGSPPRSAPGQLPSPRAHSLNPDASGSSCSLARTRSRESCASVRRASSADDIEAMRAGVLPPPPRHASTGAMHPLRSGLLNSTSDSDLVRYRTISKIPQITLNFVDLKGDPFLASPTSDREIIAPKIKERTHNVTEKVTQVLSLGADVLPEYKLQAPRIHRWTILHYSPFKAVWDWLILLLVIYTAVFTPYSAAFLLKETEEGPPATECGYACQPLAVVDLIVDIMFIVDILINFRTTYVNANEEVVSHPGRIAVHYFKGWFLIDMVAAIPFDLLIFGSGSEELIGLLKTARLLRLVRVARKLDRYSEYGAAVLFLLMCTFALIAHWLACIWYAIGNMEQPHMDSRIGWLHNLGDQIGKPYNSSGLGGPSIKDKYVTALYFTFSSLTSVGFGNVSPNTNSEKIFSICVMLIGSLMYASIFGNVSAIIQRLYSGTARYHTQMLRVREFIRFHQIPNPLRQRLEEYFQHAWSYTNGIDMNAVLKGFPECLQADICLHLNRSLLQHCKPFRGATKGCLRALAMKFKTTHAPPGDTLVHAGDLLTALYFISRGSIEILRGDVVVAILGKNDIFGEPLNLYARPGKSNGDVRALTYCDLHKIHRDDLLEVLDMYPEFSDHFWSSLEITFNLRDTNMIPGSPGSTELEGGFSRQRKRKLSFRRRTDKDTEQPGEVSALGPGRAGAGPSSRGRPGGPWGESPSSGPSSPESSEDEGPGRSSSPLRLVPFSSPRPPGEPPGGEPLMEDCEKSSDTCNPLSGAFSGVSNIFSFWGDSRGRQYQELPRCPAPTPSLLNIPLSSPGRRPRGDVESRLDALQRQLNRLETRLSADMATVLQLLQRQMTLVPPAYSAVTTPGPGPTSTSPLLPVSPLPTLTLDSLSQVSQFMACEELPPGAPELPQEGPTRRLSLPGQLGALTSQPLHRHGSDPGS

This assay has as its target human ether-à-go-go-related gene (hERG) potassium channel (human, UniProt Q12809). Nature of the assay: primary screen, population patch clamp on CHO cells stably expressing hERG.
Consider `O=C(NC1CCCCC1)c1ccc(COc2ccccc2)o1`, for which the “hERG current change (%, negative = inhibition) at 1uM” value was 11.8%.

Consider `CCOC(=O)N1CCN(c2nc(-c3ccc(Cl)cc3)cs2)CC1`, for which the “hERG current change (%, negative = inhibition) at 1uM” value is -8.51%. The value for `CN(C)C(=O)c1ccc(NC(=O)CN2C(=O)NC3(CCCc4ccccc43)C2=O)cc1` (stereo not shown) was 7.64%. Regarding `COc1ccc(CCN(C)C(=O)c2cc(=O)c3ccccc3o2)cc1OC`, the “hERG current change (%, negative = inhibition) at 1uM” value came out at 15.8%. For `COc1ccc(C2/C(=C(\O)c3ccc4c(c3)OCCO4)C(=O)C(=O)N2CCCn2ccnc2)cc1` (stereo not shown) the value was 5.54%; for `CNC(=O)c1c(NC(NC(=O)c2ccco2)C(=O)c2ccc(Cl)cc2)sc2c1CCCC2` (stereo not shown), 10.1%; for `COC(=O)C1C2C=CC(C3CC23)C1C(=O)OCC(=O)c1ccc(OC)cc1` (stereo not shown), 6.58%.

For `COc1cc(C(=O)NCC(=O)NC(C)c2ccc(-n3ccnc3)cc2)cc(OC)c1OC` (stereo not shown), the “hERG current change (%, negative = inhibition) at 1uM” value is recorded as 7.75%. The value for `CCc1nc2ccccc2c(=O)n1/N=C/c1ccc(Cl)cc1` was -6.86%; that for `COc1ccc(C2CC(=O)NC3=C2C(=O)CCC3)cc1Cl` (stereo not shown) was 11.1%. For `C/C(=N\N1CCN(c2ccc(Cl)cc2)CC1)c1ccco1` the value was 8.12%; for `CN(CCCNC(=O)c1cccn2c(=O)c3ccccc3nc12)Cc1ccccc1`, -75.3%; for `COc1ccc(-c2cc(C(=O)NCCN3CCOCC3)c3ccccc3n2)cc1`, -1.54%.

As for `O=C(CCc1nc(-c2ccccc2F)no1)Nc1ccc(Oc2ccccc2)cc1`, the “hERG current change (%, negative = inhibition) at 1uM” value came to 10.1%. The value for `COc1cc(NC(=O)CN2C(=O)CSc3ccc(S(=O)(=O)N4CCCC4)cc32)cc(OC)c1` was 10.8%; that for `CC(=O)N(C)c1ccc(NC(=O)c2ccco2)cc1` was 12.2%.

For the compound `CCOC(=O)C1=C(C)N(C)C(C)=C(C(=O)OCC)C1c1cccnc1`, the “hERG current change (%, negative = inhibition) at 1uM” value turned out to be 2.03%. The value for `Cc1ccc(CSc2nnc(-c3ccc(NS(=O)(=O)c4ccccc4)cc3)o2)cc1` was 3.68%; that for `CCOc1cccc(CNn2cnnc2)c1OCc1ccccc1` was -0.546%.

For `O=C(O)c1cc(NCc2cccs2)ccc1N1CCOCC1`, the “hERG current change (%, negative = inhibition) at 1uM” value is recorded as -1.14%. For `O=C(NCc1cccs1)c1cc(-c2ccccc2)nc2ccccc12` the value was 10.4%. For `COc1ccc(-c2nn3c(C4CCCCC4)nnc3s2)cc1OC` the value was 3.73%. For `CC(=O)c1cccc(NC(=O)N2C3CCCC2CC(NC(=O)C2CC2)C3)c1` (stereo not shown) the value was 13.8%.

In the case of `CCOC(=O)c1cc2c(=O)n3ccccc3nc2n(Cc2ccco2)c1=NC(=O)c1cccnc1`, the “hERG current change (%, negative = inhibition) at 1uM” value is reported as 2.18%.

As to `CN(C)S(=O)(=O)c1ccc(Cl)c(C(=O)Nc2cccc([N+](=O)[O-])c2)c1`, the “hERG current change (%, negative = inhibition) at 1uM” value is given as -3.12%. For `COc1cc(C(=O)N(C)CC(=O)Nc2cccc(F)c2)ccc1OCc1ccccc1` the value was 8.75%; for `C=CCOC(=O)c1cn(CC)c2nc(C)ccc2c1=O`, -10.1%. For `CCc1cc(C(c2ccc(F)cc2)N2CCOCC2)c(NC(=O)c2ccccc2)s1` (stereo not shown) the value was 11.2%; for `C=CCn1c(SCc2ccc(C(=O)NCCO)cc2)nc2ccccc2c1=O`, 5.66%; for `CC(C)(C)N(CC#CCC(O)(c1ccccc1)C1CCCC1)CCO` (stereo not shown), 15.6%. The value for `COc1ccccc1NS(=O)(=O)c1cccc(C(=O)N/N=C/c2ccc(N3CCOCC3)cc2)c1` was -0.405%; that for `CN1CCN(C(=O)CSc2ccc(C(F)(F)F)cc2[N+](=O)[O-])CC1` was -9.45%; that for `Cc1ccc(S(=O)(=O)N(CC(=O)Nc2cccnc2)c2cccc([N+](=O)[O-])c2)cc1` was -4.38%. For the compound `Cn1cc(/C=N/NC(=O)c2ccc(C#N)cc2F)c2ccccc21`, the “hERG current change (%, negative = inhibition) at 1uM” value is listed as 12.6%. The value for `C=CCn1c(N)c(C(=O)NCC2CCCO2)sc1=S` (stereo not shown) was 10.9%; that for `COc1ccc(CC(=O)N2CCN(c3ccccn3)CC2)cc1OC` was 13.4%; that for `Nc1cc(=O)[nH]c(=O)n1CC1CC1` was 18.7%.

With `COc1ccc(C#Cc2c(-c3ccsc3)oc3ccc(N4CCOCC4)cc23)cc1`, the “hERG current change (%, negative = inhibition) at 1uM” value stood at 6.13%. For `COc1ccc(-c2noc(C3CCCN(C(=O)c4cccc(C)c4)C3)n2)cc1` (stereo not shown) the value was 9.91%. The value for `COc1cc(Cl)c(C)cc1NC(=O)c1cccc(OC)c1OC` was 13.2%. For `O=C(COC(=O)CNC(=O)c1ccccc1)Nc1ccc(Cl)cc1C(F)(F)F` the value was 0.717%; for `CCN1CCN(CCCN(Cc2ccco2)C(=S)Nc2ccc(Cl)cc2)CC1`, -18.6%; for `Fc1ccc(-c2[nH]ncc2-c2nnnn2-c2ccccc2)c(F)c1`, 10.6%.
